# Experimental data reported in the supplement of paper PMC9446081.
# In all, about 39,000 compounds went through this assay and about 220 (0.56%) showed activity. This is one part of the list.
# Tested on: Escherichia coli K-12 BW25113
# Assay: relative growth (OD600 normalised to plate interquartile mean) (fraction); higher = less growth inhibition, active = 0.2 or less
# Details: 50 µM; LB; incubation time: overnight (16-24 h)
# 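Note: static incubation at 37 °C against the wild-type strain, values averaged over two biological replicates.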
row,Compound,relative growth
1,C[C@@H]1CN([C@H](C)CO)C(=O)c2cc(NS(=O)(=O)c3ccccc3)ccc2O[C@@H](C)CCCCO[C@@H]1CN(C)C(=O)CCC(F)(F)F,inactive: 0.989
2,C[C@@H]1CN([C@H](C)CO)C(=O)c2cc(C#CCc3ccccc3)cnc2O[C@H]1CN(C)C(=O)C1CCOCC1,inactive: 1
3,C[C@@H]1CN([C@@H](C)CO)C(=O)c2cc(C#Cc3cccc(F)c3)cnc2O[C@@H]1CN(C)Cc1ccccn1,inactive: 1.01
4,Cc1cc(C(=O)Nc2cccc3c2O[C@@H](CN(C)S(=O)(=O)c2ccc(Cl)cc2)[C@H](C)CN([C@@H](C)CO)C3=O)n(C)n1,inactive: 0.998
5,CC(C)NC(=O)N(C)C[C@@H]1Oc2ccc(NS(=O)(=O)c3ccccc3)cc2C(=O)N([C@@H](C)CO)C[C@H]1C,inactive: 0.984
6,C[C@@H]1CN([C@@H](C)CO)C(=O)Cc2cc(NC(=O)CCN3CCOCC3)ccc2O[C@@H]1CN(C)C(=O)Nc1ccccc1,inactive: 1.02
7,C[C@H]1CN([C@@H](C)CO)S(=O)(=O)c2ccc(C#Cc3ccncc3)cc2O[C@H]1CN(C)S(=O)(=O)c1ccccc1,inactive: 1.03
8,Cc1noc(C)c1NC(=O)N(C)C[C@@H]1Oc2ccc(NC(=O)C3CC3)cc2CC(=O)N([C@@H](C)CO)C[C@@H]1C,inactive: 1
9,CC1=CC=CC2=NC(=O)C[C@](C)(C(=O)O)N12,inactive: 0.972
10,COc1ccc(S(=O)(=O)N(C)C[C@@H]2Oc3c(NC(=O)Nc4cccc5ccccc45)cccc3C(=O)N([C@@H](C)CO)C[C@H]2C)cc1OC,inactive: 1.02
11,CCC12CCCN3CCc4c(n(c5ccccc45)C(O)(C(=O)OC)C1)C32 (stereo not given),inactive: 1.14
12,COc1ccc(S(=O)(=O)Nc2ccc3c(c2)C(=O)N([C@@H](C)CO)C[C@H](C)[C@H](CN(C)S(=O)(=O)c2ccc(Cl)cc2)OCCCC[C@@H](C)O3)cc1,inactive: 1.02
13,C[C@@H]1CN([C@@H](C)CO)C(=O)Cc2cc(NC(=O)C3CC3)ccc2O[C@@H]1CN(C)S(=O)(=O)c1ccccc1,inactive: 1.01
14,COCC(=O)Nc1ccc2c(c1)C(=O)N(C)C[C@H](OC)[C@@H](C)CN(C(=O)Cc1ccccn1)[C@@H](C)CO2,inactive: 0.971
15,COc1ccc(S(=O)(=O)N(C)C[C@H]2Oc3c(NS(=O)(=O)c4ccc(C)cc4)cccc3C(=O)N([C@H](C)CO)C[C@H]2C)cc1,inactive: 1.02
16,COc1ccc(NC(=O)Nc2ccc3c(c2)C(=O)N([C@H](C)CO)C[C@@H](C)[C@H](CN(C)S(=O)(=O)c2ccccc2)OCCCC[C@H](C)O3)cc1,inactive: 1.05
17,Cc1ccc(S(=O)(=O)N(C)C[C@@H]2OCCCC[C@@H](C)Oc3ccc(NC(=O)C4CCCCC4)cc3C(=O)N([C@@H](C)CO)C[C@@H]2C)cc1,inactive: 1.02
18,O=C1CCC(C(=O)O)N1 (stereo not given),inactive: 0.958
19,C[C@H]1CN([C@@H](C)CO)C(=O)c2cc(NS(=O)(=O)c3ccc(F)cc3)ccc2O[C@@H]1CN(C)C(=O)Nc1ccc(C(F)(F)F)cc1,inactive: 1.02
20,C#CC1(O)CCC2C3CCc4cc(OC5CCCC5)ccc4C3CCC21C (stereo not given),inactive: 1.02

row,Compound,relative growth
1,C[C@H]1CCCCO[C@H](CN(C)C(=O)Nc2ccc(F)cc2)[C@@H](C)CN([C@@H](C)CO)C(=O)c2cc(NC(=O)Nc3ccccc3)ccc2O1,inactive: 1.03
2,COC1C=COC2(C)Oc3c(C)c(O)c4c(O)c(c(C=NN5CCN(C)CC5)c(O)c4c3C2=O)NC(=O)C(C)=CC=CC(C)C(O)C(C)C(O)C(C)C(OC(C)=O)C1C (stereo not given),active: 0.0777
3,CCCNC(=O)N[C@@H]1C=C[C@@H](CC(=O)N2CCN(C)CC2)O[C@H]1CO,inactive: 1.01
4,COc1ccc2c3c([nH]c2c1)[C@H](CO)N(Cc1ccc(cc1)Cl)C[C@]13CCN(CC1)Cc1nccs1,inactive: 0.995
5,CCOC(=O)[C@H]1CCCCN1,inactive: 1
6,C[C@@H]1CN([C@@H](C)CO)C(=O)c2cccc(NC(=O)c3ccncc3)c2O[C@H]1CN(C)S(=O)(=O)c1ccccc1,inactive: 1
7,CC(/C=C/C(=O)NO)=C\c1cccc(OC[C@@H]2[C@H]3C[C@H]4c5[nH]c6ccccc6c5CCN4C[C@@H]3CC[C@@H]2O)c1,inactive: 0.96
8,C[C@H](CO)N1C[C@H](C)[C@@H](CN(C)Cc2ccc(C(F)(F)F)cc2)Oc2ccc(NS(=O)(=O)c3ccc(Cl)cc3)cc2CC1=O,inactive: 1
9,C[C@H](CO)N1C[C@H](C)[C@@H](CN(C)C(=O)C2CC2)OCc2cnnn2CCCC1=O,inactive: 0.989
10,CC(C)NC(=O)Nc1ccc2c(c1)CC(=O)N([C@H](C)CO)C[C@H](C)[C@H](CN(C)C(=O)NC1CCCCC1)O2,inactive: 1.02
11,O=C([C@@H]1N[C@@H]2c3ccc(-c4ccc(F)cc4)c(=O)n3C[C@@H]2[C@H]1CO)N1CCOCC1,inactive: 0.989
12,C[C@H]1CN([C@@H](C)CO)C(=O)c2cc(NC(=O)CCCN(C)C)ccc2O[C@@H]1CN(C)Cc1ccc(Oc2ccccc2)cc1,inactive: 0.982
13,C[C@H]1CN([C@@H](C)CO)C(=O)c2cc(NS(=O)(=O)c3cn(C)cn3)ccc2O[C@H]1CN(C)S(=O)(=O)c1ccc(F)cc1,inactive: 0.995
14,C[C@H]1CN([C@@H](C)CO)C(=O)c2cccc(NC(=O)Nc3ccc(C(F)(F)F)cc3)c2O[C@H]1CN(C)S(=O)(=O)c1ccc(Cl)cc1,inactive: 0.869
15,O=C(C[C@@H]1CC[C@@H]2[C@H](COC[C@@H](O)CN2C(=O)Nc2ccc(C(F)(F)F)cc2)O1)NCc1ccncn1,inactive: 1.02
16,C[C@H]1CN([C@@H](C)CO)C(=O)c2cccc(NC(=O)Nc3cccc4ccccc34)c2O[C@H]1CN(C)C(=O)Nc1ccc(C(F)(F)F)cc1,inactive: 0.978
17,COC(=O)c1cnn2c(=O)cc(C)[nH]c12,inactive: 1.01
18,C[C@@H]1CN([C@H](C)CO)S(=O)(=O)c2ccc(-c3ccc(C(=O)N(C)C)cc3)cc2O[C@@H]1CN(C)C(=O)C1CCC1,inactive: 1.01
19,COc1ccc(S(=O)(=O)N2C[C@H](O)COC[C@@H]3O[C@@H](CC(=O)NCCCN(C)C)CC[C@H]32)cc1,inactive: 0.995
20,CC(=O)N1CCS(=O)(=O)[C@@H]2CCN(S(=O)(=O)c3ccccc3C)CC[C@@H]21,inactive: 0.987

row,Compound,relative growth
1,COC(=O)[C@@H]1C[C@@H](C#N)N[C@@H]1c1ccccn1,inactive: 1.02
2,C[C@H](CO)N1C[C@H](C)[C@H](CN(C)Cc2ccc(C(=O)O)cc2)OCCCC[C@H](C)Oc2ccc(NC(=O)Nc3ccc4c(c3)OCO4)cc2C1=O,inactive: 1.02
3,C[C@@H]1CCCCO[C@@H](CN(C)S(=O)(=O)c2ccc(Cl)cc2)[C@H](C)CN([C@H](C)CO)C(=O)c2cc(NC(=O)NC3CCCCC3)ccc2O1,inactive: 1.01
4,COc1ccc(CN(C)C[C@H]2Oc3ccc(NS(=O)(=O)c4cn(C)cn4)cc3CC(=O)N([C@H](C)CO)C[C@H]2C)cc1,inactive: 0.983
5,C[C@H](CO)N1C[C@H](C)[C@H](CN(C)C(=O)NC2CCCCC2)Oc2ccc(NS(=O)(=O)c3cn(C)cn3)cc2C1=O,inactive: 0.975
6,C[C@H](CO)N1C[C@H](C)[C@@H](CN(C)S(=O)(=O)c2ccccc2)Oc2ccc(NC(=O)C3CC3)cc2C1=O,inactive: 1
7,C[C@@H]1CCCCO[C@@H](CN(C)Cc2ccc(C(F)(F)F)cc2)[C@H](C)CN([C@@H](C)CO)C(=O)c2cc(NC(=O)Nc3ccccc3)ccc2O1,inactive: 0.971
8,Cc1cc(C(=O)O)n(C)n1,inactive: 0.984
9,Cc1ccc(S(=O)(=O)N(C)C[C@@H]2OCCCC[C@H](C)Oc3ccc(NC(=O)Nc4c(C)noc4C)cc3C(=O)N([C@@H](C)CO)C[C@@H]2C)cc1,inactive: 0.988
10,C[C@@H]1CN([C@@H](C)CO)C(=O)c2cc(NS(=O)(=O)c3ccc(F)cc3)ccc2O[C@@H](C)CCCCO[C@@H]1CN(C)C(=O)Nc1ccccc1,inactive: 1.03
11,COc1c2ccoc2cc2oc(=O)ccc12,inactive: 1.11
12,CN(C)CC(=O)N1CC(=O)N2[C@H](CO)[C@@H](c3ccc(C#Cc4cccnc4)cc3)[C@@H]2C1,inactive: 1
13,C[C@H](CO)N1C[C@H](C)[C@H](CN(C)S(=O)(=O)c2ccccc2)OCCCC[C@H](C)Oc2ccc(NC(=O)Nc3ccc(C(F)(F)F)cc3)cc2C1=O,inactive: 1
14,CC(C)NC(=O)N(C)C[C@@H]1Oc2cc(C#Cc3cccc(F)c3)ccc2S(=O)(=O)N([C@@H](C)CO)C[C@@H]1C,inactive: 0.992
15,C[C@@H]1CN([C@@H](C)CO)C(=O)c2cc(NC(=O)Nc3cccc4ccccc34)ccc2O[C@@H](C)CCCCO[C@@H]1CN(C)S(=O)(=O)c1ccc(Cl)cc1,inactive: 1
16,Cc1cc(=O)n(CNC(=O)c2ccco2)cn1,inactive: 1.01
17,CN(C)CC(=O)N1[C@@H]2Cn3c(cccc3=O)[C@H]1[C@@H](C(=O)NCc1ccccc1)[C@@H]2CO,inactive: 1
18,C[C@@H]1CN([C@@H](C)CO)C(=O)c2cc(NC(=O)Nc3cccc4ccccc34)ccc2O[C@H]1CN(C)C(=O)Nc1cccc2ccccc12,inactive: 1.03
19,Cc1noc(C)c1S(=O)(=O)Nc1ccc2c(c1)C(=O)N([C@H](C)CO)C[C@@H](C)[C@H](CN(C)Cc1ccc(C(F)(F)F)cc1)OCCCC[C@H](C)O2,inactive: 1.02
20,C[C@@H]1CCCCO[C@H](CN(C)S(=O)(=O)c2cccs2)[C@@H](C)CN([C@H](C)CO)C(=O)c2cc(NC(=O)Nc3ccc4c(c3)OCO4)ccc2O1,inactive: 1.02
